# Measurements: PubChem BioAssay AID624296 (National Center for Advancing Translational Sciences (NCATS), 2012)
# Hit rate of the full screen: of about 350,000 compounds, about 9,900 (2.8%) were called active. Inconclusive means that the source gave no clear call. Such entries were picked first, then a sample of the others. Calls follow the shape of the dose curve; as a rule, active = well fitted activation curve with a large enough effect; inconclusive = small, poorly fitted or top-dose-only effect; inactive = no such curve, though single readings can be large or run the other way. No potency is given beside an inconclusive call; the fits are too rough.
# Assay: A quantitative high throughput screen for small molecules that induce DNA re-replication in MCF 10a normal breast cells. Also: nearly all actives have a fitted effect of over 50% in size. As to activity, positive = re-replication: % of control where 0% means no effect.
# Conditions: MCF 10A DNA re-replication, Hoechst nuclear intensity, 48 h; activity, positive = re-replication: at 46.1 µM (top of the series)
# Potency is read from the fitted curve at half-maximal effect; tags tell the direction and shape of the fitted curve.
SMILES,"activity, positive = re-replication",Potency
Cc1ccc(NC(=O)C2COc3ccccc3O2)c(C)c1 (stereo unspecified),inactive: 7.38%,–
CC(=O)NN1C(=O)c2ccccc2NC1c1ccco1 (stereo unspecified),inactive: -13.6%,–
COC(=O)c1c(-c2c(Cl)cccc2Cl)noc1NC(=O)NN1CCCCC1,–,"inconclusive [activator, single point]"
O=C(NCc1ccco1)C1CC(c2ccc(Cl)cc2)=NO1 (stereo unspecified),–,"inconclusive [activator, full curve, poor fit]"
COc1cc(NC(=O)N[C@@H](CCSC)C(=O)O)cc(OC)c1,–,"inconclusive [activator, single point]"
O=[N+]([O-])c1cc(Br)ccc1C[n+]1ccccc1,–,"inconclusive [activator, single point]"
CC(NC(=O)CCc1nnc(-c2ccc(-c3ccccc3)cc2)o1)c1nc2ccccc2[nH]1 (stereo unspecified),–,"inconclusive [activator, single point]"
O=C(Nc1ccc(OC(F)(F)F)cc1)c1cnc2n(c1=O)CCS2,inactive: 8.6%,–
Cc1ccc(N)c2c1OCCC2=O,inactive: -78.5%,–
C=CCNC(=S)N/N=C/c1ccc(C(C)(C)C)cc1,inactive: 8.8%,–
COc1cc2c(C#Cc3cccnc3)c(-c3ccsc3)oc(=O)c2cc1OC,–,"inconclusive [activator, single point]"
N#C/C(=C\c1ccc(N2CCOCC2)o1)C(=O)Nc1ccc(O)cc1,–,"inconclusive [activator, single point]"
Cc1ccc(S(=O)(=O)N2[C@@H](c3ccc(C(C)(C)C)cc3)C(C(=O)O)=CC[C@H]2c2ccc3c(c2)OCO3)cc1,inactive: 9.6%,–
S=C(Nc1ccc(N2CCOCC2)cc1)Nc1ccc2nc(-c3ccco3)c(-c3ccco3)nc2c1,–,"inconclusive [activator, full curve, poor fit]"
Cc1ccc(-c2csc(NC(=O)CN3CCOCC3)n2)cc1,–,"inconclusive [activator, partial curve, poor fit]"
O=C(NCN1CCCCC1)c1cnccn1,–,"inconclusive [activator, partial curve, poor fit]"
CC1CCCCN1N=Nc1nc2c([nH]1)c(=O)n(C)c(=O)n2C (stereo unspecified),inactive: -2.87%,–
Cn1c(CCN2CCN(c3ccccn3)CC2)nc2cc(NC(=O)COc3ccc(Cl)cc3)ccc21,inactive: 2.56%,–
Cc1cnc(C(=O)OCC(=O)Nc2ccc(C)c(S(=O)(=O)N3CCOCC3)c2)cn1,inactive: 3.45%,–
Cc1cccn2c(=O)c3cc(C#N)c(=NC(=O)c4ccccc4)n(Cc4ccco4)c3nc12,–,active: 2.31 µM
CCOc1ccc(Br)cc1S(=O)(=O)Nc1ccc(Cl)c(S(=O)(=O)N(C)C)c1,–,"inconclusive [activator, single point]"
